{
  "source": "PubChem BioAssay AID686979",
  "about": "(National Center for Advancing Translational Sciences (NCATS), 2013)",
  "note": "Where “and” joins values, the source holds several entries; their conditions need not be identical. Equal values may be shown once. The campaign covered roughly 420,000 compounds. About 50,000 (12%) were called active. The inconclusive results got no clear call from the source; some entries with a clear call stand among them for comparison. Calls follow the shape of the dose curve; as a rule, active = well fitted inhibition curve with a large enough effect; inconclusive = small, poorly fitted or top-dose-only effect; inactive = flat fitted curve, though single readings scatter. No potency is given beside an inconclusive call; the fits are too rough. % is scaled to controls: 0 for no effect and ±100 for the full control effect; potency is read from the fitted curve at half-maximal effect; tags tell the direction and shape of the fitted curve.",
  "data": [
    {"test": "qHTS for Inhibitors of human tyrosyl-DNA phosphodiesterase 1 (TDP1): qHTS in cells in presence of CPT; also: nearly all actives have a fitted effect of over 55% in size", "settings": "chicken DT40 Tdp1-/-;hTDP1 cells + 20 nM CPT, ATP luminescence, 48 h; activity change, negative = growth inhibition: at 46.2 µM (top of the series) unless noted", "outline": "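Cell growth measured by CellTiter-Glo luminescence after a minimum 48 h, 37 C compound exposure with 20 nM CPT in Tdp1-knockout DT40 cells stably expressing hTDP1, seeded 400/well; qHTS titration format.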", "values": [
      {"compound": "O=c1c(O)c(-c2ccc(O)cc2)oc2ccccc12", "Potency": "inconclusive [inhibitor, partial curve, poor fit]"},
      {"compound": "c1ccc(Cn2ccnc2C2OCCO2)cc1", "Potency": "inactive"},
      {"compound": "Cc1ccc(CS(=O)(=O)CC(C)(O)c2ccccc2)cc1", "note": "(stereo not given)", "Potency": "inactive"},
      {"compound": "CCOC(=O)c1nnc2c(Br)c(-c3ccccc3)nn2c1C", "Potency": "inconclusive [inhibitor, single point]"},
      {"compound": "Cc1cc(C)cc(N2C(=O)CN(Cc3sccc3C)C2=S)c1", "Potency": "inactive"},
      {"compound": "O=c1cc(NC2CCCCCC2)[nH]c(=O)[nH]1", "Potency": "inconclusive [inhibitor, single point]"},
      {"compound": "O=C(CN1C(=O)/C(=C/c2ccc(F)cc2)SC1=S)NC1C=CS(=O)(=O)C1", "note": "(stereo not given)", "Potency": "inconclusive [inhibitor, single point]"},
      {"compound": "O=C1CC(c2ccc(Cl)cc2)N=C(NC(=O)c2ccccc2)N1", "note": "(stereo not given)", "Potency": "inactive"},
      {"compound": "COc1ccc(NC(=S)N2CCC(NC(=O)c3cccc(F)c3)CC2)cc1", "Potency": "inactive"},
      {"compound": "OC(c1ccc(F)cc1)c1nc(-c2cccc(C(F)(F)F)c2)cs1", "note": "(stereo not given)", "Potency": "inconclusive [inhibitor, single point]"},
      {"compound": "N#Cc1nc(-c2ccccc2)oc1NCc1ccco1", "activity change, negative = growth inhibition": "inconclusive: -31.3% [inhibitor]"},
      {"compound": "C[C@H]1COC(=O)[C@@H](CC(=O)OC(C)(C)C)C/C=C\\C[C@@H](CC(=O)N(CCO)Cc2ccccc2)C(=O)N1", "Potency": "inconclusive [inhibitor, single point]"},
      {"compound": "O=C(OCCOc1ccccc1F)c1cccc(S(=O)(=O)N2CCOCC2)c1", "Potency": "inactive"},
      {"compound": "O=C(COc1cccc(C(F)(F)F)c1)N1CCN(c2ccc(O)cc2)CC1", "Potency": "inconclusive [inhibitor, single point]"},
      {"compound": "CCCCN(C)C(=O)c1cc2c(s1)-c1ccccc1S(=O)(=O)C2", "Potency": "inconclusive [inhibitor, single point]"},
      {"compound": "CCOc1ccccc1C(=O)NN1C(=O)CCC1=O", "Potency": "inconclusive [inhibitor, single point]"},
      {"compound": "c1ccc(COc2ccc(OCCN3CCCCC3)cc2)cc1", "Potency": "inconclusive [inhibitor, single point]"},
      {"compound": "Cc1ccc(NC(=O)Cn2c(=O)ccc3cc(S(=O)(=O)N4CCC(C)CC4)ccc32)cc1Cl", "Potency": "active: 11.6 µM"},
      {"compound": "CCCCn1c(CN(C)Cc2ccccc2)nc2c1c(=O)n(C)c(=O)n2C", "Potency": "active: 6.51 µM"},
      {"compound": "Cc1ccc(C)c(NC(=O)c2cc(=O)c3cc(C)cc(C)c3o2)c1", "Potency": "inactive"},
      {"compound": "Cc1ccc(C(=O)N/C(=C\\c2cccs2)C(=O)NCc2ccncc2)cc1", "activity change, negative = growth inhibition": "inconclusive: -31.1% [inhibitor]"},
      {"compound": "COc1cccc(NC(=S)N/N=C2/CCCCc3ccccc32)c1", "Potency": "inconclusive [inhibitor, single point]"},
      {"compound": "Cc1ccccc1CS(=O)(=O)Cc1ccc(C(=O)NCc2ccc(F)cc2)o1", "Potency": "inconclusive [inhibitor, single point]"},
      {"compound": "O=C(c1cccc(F)c1)N1CCC2(CC1)CN(C(c1ccccc1)c1ccccc1)C2", "Potency": "inconclusive [inhibitor, partial curve, poor fit]"},
      {"compound": "COc1ccc(N(C)C(=O)c2ccc3c(c2)nnn3C)cc1", "Potency": "inactive"},
      {"compound": "Cc1c(CCOC(=O)C23CC4CC(CC(C)(C4)C2)C3)sc[n+]1Cc1ccccc1", "Potency": "active: 4.11 µM"},
      {"compound": "COc1ccc(Cn2c(SC)nc3ccccc32)cc1[N+](=O)[O-]", "Potency": "inactive"},
      {"compound": "CSc1ncccc1C(=O)OCn1nnc2ccccc2c1=O", "Potency": "inactive"},
      {"compound": "Cn1nnc(NC(=O)c2ccccc2F)n1", "Potency": "inactive"},
      {"compound": "NC(N)=Nc1ccc(C=C2C=Cc3ccccc32)cc1", "Potency": "active: 9.2 µM"},
      {"compound": "O=C(NCc1cccnc1)c1cccc(S(=O)(=O)Nc2ccc(F)cc2)c1", "Potency": "inconclusive [inhibitor, single point]"},
      {"compound": "Cc1cc(/C=N/NS(=O)(=O)c2ccc(F)c(Cl)c2)no1", "Potency": "inconclusive [inhibitor, partial curve]"},
      {"compound": "C=CCNC(=O)C(=O)Nc1ccc2c(c1)N(S(=O)(=O)c1cccs1)CCC2", "Potency": "inconclusive [inhibitor, single point]"},
      {"compound": "C[C@H](O)CN(C)C", "Potency": "inactive"},
      {"compound": "COc1ccccc1C(=O)Nc1ccccc1C(=O)Nc1ccccc1", "Potency": "inconclusive [inhibitor, single point]"},
      {"compound": "CN(Cc1ccccc1)C(=O)c1ccc2nc([C@@H]3O[C@H](CO)[C@H](O)[C@H](O)[C@H]3O)[nH]c2c1", "Potency": "inactive"},
      {"compound": "CCN(CC(=O)Nc1c(F)cccc1F)C(=O)C1CCN(S(=O)(=O)c2ccc(C)c(C)c2)CC1", "Potency": "inactive"},
      {"compound": "CCN(CC)S(=O)(=O)c1cccc(-c2cn3cc(C)ccc3n2)c1", "Potency": "active: 20.6 µM"},
      {"compound": "CC(C)(C)c1ccc(-c2noc(CCC(=O)N3CCOCC3)n2)cc1", "Potency": "inconclusive [inhibitor, single point]"},
      {"compound": "Cc1c(CCC(=O)N2CCC[C@H]2C(=O)O)c(=O)oc2c(C)c3oc4c(c3cc12)CCCC4", "Potency": "inconclusive [inhibitor, partial curve]"},
      {"compound": "Cc1cccc(NC(=O)[C@@H]2CCCN2S(=O)(=O)c2ccc(Cl)cc2)c1", "Potency": "inconclusive [inhibitor, partial curve]"},
      {"compound": "CC(C)N=C(NS(=O)(=O)c1ccccc1)C(Cl)(Cl)Cl", "Potency": "active: 2.91 µM"},
      {"compound": "N=c1c(-c2nc3ccccc3[nH]2)cc(C(=O)c2cccs2)nn1-c1ccccc1", "Potency": "active: 29.1 µM"},
      {"compound": "COCCNc1ncnc2c1c(-c1ccccc1)cn2-c1cccc(Cl)c1", "Potency": "inconclusive [inhibitor, single point]"},
      {"compound": "Cc1ccc(S(=O)(=O)N2CCCCC2)cc1NC(=O)C1CC(=O)N(Cc2ccco2)C1", "note": "(stereo not given)", "Potency": "inactive"},
      {"compound": "O=C(CSCc1ccccc1Br)N/N=C/c1ccccc1C(=O)O", "Potency": "inactive"},
      {"compound": "NS(=O)(=O)c1cccc(NC(=O)COC(=O)CN2C(=O)c3ccccc3C2=O)c1", "Potency": "inactive"},
      {"compound": "CC(/C=C/c1cccc([N+](=O)[O-])c1)=N/NC(=O)c1cccnc1", "Potency": "inconclusive [inhibitor, single point]"},
      {"compound": "Cc1ccc(-c2nnc(Nc3ccc(C(=O)N(C)C)cc3)c3ccccc23)cc1S(=O)(=O)NC(C)(C)CO", "Potency": "inconclusive [inhibitor, single point]"},
      {"compound": "CC1CCN(C(=O)CC(NC(=O)c2ccccc2Cl)c2ccccc2)CC1", "note": "(stereo not given)", "activity change, negative = growth inhibition": "inconclusive: -32% [inhibitor]"},
      {"compound": "CCCCNC(=O)CCc1c(C)nc2c(c(C)nn2-c2ccccc2)c1C", "Potency": "active: 18.4 µM"},
      {"compound": "CCN1C(Nc2ccccc2)=NC[C@@H]1Cc1ccccc1", "Potency": "inconclusive [inhibitor, single point]"},
      {"compound": "CCOC(=O)/C(=C\\c1ccc(OC)c(OC)c1)C(=O)c1cccnc1", "Potency": "inactive"},
      {"compound": "CC(=O)Nc1ccc(S(=O)(=O)NNC(=O)c2cc3c4ccccc4n(C)c3s2)cc1", "Potency": "active: 5.17 µM"},
      {"compound": "CC(C)C(NC(=O)Cc1ccccc1[N+](=O)[O-])C(C)C", "Potency": "inactive"},
      {"compound": "COc1ccc(NS(=O)(=O)c2cccc(C(=O)Nc3cccc(C(=O)O)c3)c2)cc1", "Potency": "inactive"},
      {"compound": "CC1=NC(=O)C(N=Nc2ccccc2C(=O)O)N1c1ccccc1", "note": "(stereo not given)", "Potency": "active: 7.31 µM"},
      {"compound": "COc1ccccc1Cc1c(-c2ccc(Cl)cc2)nc2c(Cl)cc(C(F)(F)F)cn12", "Potency": "inactive"},
      {"compound": "CNC(=O)c1ccc(NC(=O)CCNC(=O)Nc2ccccc2)cc1", "Potency": "inactive"},
      {"compound": "O=C(Nc1ccccc1)C1=C(N2CCOCC2)/C(=C/c2cccnc2)CC1", "Potency": "inactive"},
      {"compound": "NC[C@H]1O[C@@H](n2ccc(N)nc2=O)[C@H](O)[C@@H]1O", "Potency": "inconclusive [inhibitor, single point]"},
      {"compound": "Cc1ccc(NC(=O)C2CCCN2S(=O)(=O)c2cccc3cccnc23)cc1C", "note": "(stereo not given)", "Potency": "inconclusive [inhibitor, single point]"},
      {"compound": "CCc1cc2c(N=Nc3c(O)[nH]c4ccccc34)ncnc2s1", "Potency": "active: 18.4 µM"},
      {"compound": "CC1(C)COCN1S(=O)(=O)c1ccc(C(=O)Nc2nnc(-c3ccc(Cl)s3)o2)cc1", "Potency": "active: 3.98 µM"},
      {"compound": "Cn1c(=O)cc(SCC(=O)NCc2ccc(F)cc2)c2ccccc21", "Potency": "inconclusive [inhibitor, single point]"},
      {"compound": "Cc1cccc(CS(=O)(=O)c2ncc(Cl)c(C(=O)NCc3ccccc3)n2)c1", "Potency": "active: 1.3 µM and active: 3.26 µM"},
      {"compound": "COc1ccc(OC)c(N(CC(=O)N2CCN(Cc3ccccc3)CC2)S(C)(=O)=O)c1", "Potency": "inactive"},
      {"compound": "Cc1ccc(F)cc1NC(=O)N1CCN(C2c3ccccc3-c3ccccc32)CC1", "Potency": "inconclusive [inhibitor, single point]"},
      {"compound": "Cc1ccc(NS(=O)(=O)c2ccc(C)c(NC(=S)NCCN3CCOCC3)c2)c(C)c1", "Potency": "inconclusive [inhibitor, single point]"},
      {"compound": "O=C1Nc2ccccc2C1(c1ccccc1)c1ccccc1", "Potency": "inconclusive [inhibitor, single point]"},
      {"compound": "COc1cccc(OCc2nc3ccccc3n2CCOc2cccc(C)c2)c1", "Potency": "inconclusive [inhibitor, single point]"},
      {"compound": "CC1Sc2ccc(S(=O)(=O)N3CCC(C(=O)NCCc4ccccc4)CC3)cc2NC1=O", "note": "(stereo not given)", "Potency": "inconclusive [inhibitor, single point]"},
      {"compound": "CC(C)CCCCCCCCCCCCC(=O)NCC(=O)NC1C(O)C(O)C(Nc2ncnc3nc[nH]c23)OC1C(O)CO", "note": "(stereo not given)", "Potency": "active: 0.146 µM"},
      {"compound": "O=C(NCCc1ccccc1)c1cc(Sc2ccc(F)cc2F)nc2ccccc12", "Potency": "inconclusive [inhibitor, partial curve]"},
      {"compound": "CN1CC=C2C(C#N)=C(N)C(C#N)(C#N)[C@H](c3ccoc3)[C@H]2C1", "Potency": "inconclusive [inhibitor, single point]"}
    ]}
  ]
}
